Laboratory results as given in the supplement of paper PMC11417369.
± gives the standard deviation of the averaged measurements. The list shows a part of the results.

System: PfAP2-LT AP2 domain (GST-tagged)
Assay: gcPBM binding intensity (ln(normalized median fluorescence intensity)); higher = stronger DNA binding
Summary of the method: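 After 1 h on an Agilent 4 × 180k array of primer-extended double-stranded 36-bp intergenic genomic probes and negative controls, bound GST-tagged P. falciparum DNA-binding domains were detected with Alexa488 anti-GST antibody and scanned at 488 nm. The domains had been expressed in E. coli, and binding took place in 1× PBS with 1% milk, 0.2 mg/ml BSA, 0.5% salmon testes DNA and 0.03% Triton X-100. Binding intensity is the highest Masliner-normalised natural-log median intensity across replicate spots of either probe orientation.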

Sequence | gcPBM binding intensity (ln)
TAAAAAAGAACAGAAACACACAAATAAAATAAAATT [CACACA_site1758] | 9.1 ± 0.52
ATTTATTTATGTATTTGTACGTATATATTTATGCAT [XGTACX_site5218] | 9.17 ± 0.38
ATAATATTTTTAAACTGTACTTTTATAAACACTTAT [XGTACX_site2625] | 8.68 ± 0.44
TTTTTTTCGTATATTACACACTATAAATAGAAATTA [CACACA_site6278] | 8.42 ± 0.4
TCATATTTTACATATGCATGTTAATAATACAAACAT [TGCATGCA_site994] | 8.68 ± 0.36
TTAACATCAAAATATGCACACAAACAATTAGCGGTA [CACACA_site8801] | 9.12 ± 0.39
TATATATATAAATACACACACACCCTAAAAATATAT [CACACA_site4970] | 9.9 ± 0.11
ATATTATGTCTACATAAACACACATATATATAAAAA [CACACA_site7976] | 8.82 ± 0.39
AATAGTTATAAATATAAATATATATATATATATATA [CACACA_negctrl_site414] | 9.22 ± 0.4
AATAAATATTCATTTTGTACATATTTTTCGTATATG [XGTACX_site6104] | 8.86 ± 0.5
TTACCATAAGTATGTGGTACACTTTAAATGAAGATA [XGTACX_site6972] | 8.53 ± 0.43
TTATATATAATATGACGTACAATTATACATTTTATG [XGTACX_site7598] | 8.71 ± 0.51
ATAAATATTTATAACAGTACATATTTACTATCCTAA [XGTACX_site4497] | 8.54 ± 0.45
ACGATTAAATCGATAATACACACTAAATGTAAAACA [CACACA_site119] | 8.96 ± 0.45
TATACACATATTTTTACACACATATTTTTTCATATA [CACACA_site7244] | 9.05 ± 0.39
AGAAAAGATAAAAATAGTACATATATATTTACTTAT [XGTACX_site7820] | 8.63 ± 0.52
TATATTATTTTTAGAAGTACTTATTGTTATAATTCT [XGTACX_site1015] | 8.53 ± 0.5
CTCCTTTCAAAAAAATGTACATGTTTACATTTCAAG [XGTACX_site7342] | 8.62 ± 0.42
TATATCAAAATACATACACACATTTGTATTTACATT [CACACA_site5485] | 9.03 ± 0.37
ATTTTAATTTGTTATACACACACAAAAAAAATTATA [CACACA_site9306] | 8.88 ± 0.32
TTTTTTTTTAATCATGCACACTGTTAAAAGAATAAA [CACACA_site4817] | 8.27 ± 0.45
TATAAAAAAATATATATATATATTATATGTGTAGAA [TGCATGCA_negctrl_site391] | 8.71 ± 0.54
ATTTATTTGAAGAATTGTACTAAATTATATAGCGGT [XGTACX_site4998] | 8.56 ± 0.36
TGCTTATTTAGAATTGTGCACAGCGAATATTCTGTT | 8.97 ± 0.46
TACATTTATACTACTGCATTCAAAAAAAATAAAAAA [TGCATGCA_negctrl_site157] | 8.34 ± 0.44
